The list shows a part of the results. The list includes weakly bound sequences.
Each sequence was assayed against T1, MBP-FoxP3dN (UniProt Q99JB6) (assay: PD-seq (MBP pull-down with sequencing)). Conditions: 20 mM Tris-HCl pH 7.5, 100 mM NaCl, 1.5 mM MgCl2, 0.4 uM protein, 0.1 uM dsDNA library, 30 min, room temperature, amylose pull-down; high values mean tight binding; double strand, one strand shown.
T1 sequence: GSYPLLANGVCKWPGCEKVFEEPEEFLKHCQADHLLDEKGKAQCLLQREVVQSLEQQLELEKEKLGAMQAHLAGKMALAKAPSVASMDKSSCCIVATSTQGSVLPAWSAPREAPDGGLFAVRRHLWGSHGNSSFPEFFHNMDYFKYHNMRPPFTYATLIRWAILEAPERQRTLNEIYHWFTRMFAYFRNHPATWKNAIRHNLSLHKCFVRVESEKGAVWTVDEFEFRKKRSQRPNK

Row | Sequence | binding signal (RPM ratio (pull-down/input))
1 | GATGATTGTTCTCCCAGCTGATGAATTTACCCCATCGAGTAAACAAATTTTCCTAATCTTTCTGTTCAAGCGCCATCTAC | 0.492
2 | GATGATTGTTCTCCCAGCTGATGAATTGCTCAAGTCGAGTAAACAAATTTTCCTAATCTTTCTGTTCAAGCGCCATCTAC | 0.371
3 | GATGATTGTTCTCCCAGCTGATGAATTTGCGGAATCGAGTAAACAAATTTTCCTAATCTTTCTGTTCAAGCGCCATCTAC | 0.363
4 | GATGATTGTTCTCCCAGCTGATGAATTGAGTGGCTCGAGTAAACAAATTTTCCTAATCTTTCTGTTCAAGCGCCATCTAC | 0.573
5 | GATGATTGTTCTCCCAGCTGATGAATTAGACCCCTCGAGTAAACAAATTTTCCTAATCTTTCTGTTCAAGCGCCATCTAC | 0.31
6 | GATGATTGTTCTCCCAGCTGATGAATTGACCTGGTCGAGTAAACAAATTTTCCTAATCTTTCTGTTCAAGCGCCATCTAC | 0.198
7 | GATGATTGTTCTCCCAGCTGATGAATTTAATAGATCGAGTAAACAAATTTTCCTAATCTTTCTGTTCAAGCGCCATCTAC | 0.301
8 | GATGATTGTTCTCCCAGCTGATGAATTCGGGCCTTCGAGTAAACAAATTTTCCTAATCTTTCTGTTCAAGCGCCATCTAC | 1.47
9 | GATGATTGTTCTCCCAGCTGATGAATTTCTGCTCTCGAGTAAACAAATTTTCCTAATCTTTCTGTTCAAGCGCCATCTAC | 0.277
10 | GATGATTGTTCTCCCAGCTGATGAATTATTAATATCGAGTAAACAAATTTTCCTAATCTTTCTGTTCAAGCGCCATCTAC | 0.553
11 | GATGATTGTTCTCCCAGCTGATGAATTGAACGTATCGAGTAAACAAATTTTCCTAATCTTTCTGTTCAAGCGCCATCTAC | 0.5
12 | GATGATTGTTCTCCCAGCTGATGAATTTGTCCGCTCGAGTAAACAAATTTTCCTAATCTTTCTGTTCAAGCGCCATCTAC | 1.34
13 | GATGATTGTTCTCCCAGCTGATGAATTAGCGGTGTCGAGTAAACAAATTTTCCTAATCTTTCTGTTCAAGCGCCATCTAC | 0.745
14 | GATGATTGTTCTCCCAGCTGATGAATTAAAAGATTCGAGTAAACAAATTTTCCTAATCTTTCTGTTCAAGCGCCATCTAC | 0.243
15 | GATGATTGTTCTCCCAGCTGATGAATTGAGGGAATCGAGTAAACAAATTTTCCTAATCTTTCTGTTCAAGCGCCATCTAC | 0.284
16 | GATGATTGTTCTCCCAGCTGATGAATTATGCGATTCGAGTAAACAAATTTTCCTAATCTTTCTGTTCAAGCGCCATCTAC | 2.32
17 | GATGATTGTTCTCCCAGCTGATGAATTAGACTGGTCGAGTAAACAAATTTTCCTAATCTTTCTGTTCAAGCGCCATCTAC | 0.336
18 | GATGATTGTTCTCCCAGCTGATGAATTGGCTAGCTCGAGTAAACAAATTTTCCTAATCTTTCTGTTCAAGCGCCATCTAC | 0.375
19 | GATGATTGTTCTCCCAGCTGATGAATTAGTCGACTCGAGTAAACAAATTTTCCTAATCTTTCTGTTCAAGCGCCATCTAC | 0.453
20 | GATGATTGTTCTCCCAGCTGATGAATTTCCCCCGTCGAGTAAACAAATTTTCCTAATCTTTCTGTTCAAGCGCCATCTAC | 0.185

Row | Sequence | binding signal (RPM ratio (pull-down/input))
21 | GATGATTGTTCTCCCAGCTGATGAATTGATAAGTTCGAGTAAACAAATTTTCCTAATCTTTCTGTTCAAGCGCCATCTAC | 0.36
22 | GATGATTGTTCTCCCAGCTGATGAATTCTGCTAATCGAGTAAACAAATTTTCCTAATCTTTCTGTTCAAGCGCCATCTAC | 0.401
23 | GATGATTGTTCTCCCAGCTGATGAATTCCATTTTTCGAGTAAACAAATTTTCCTAATCTTTCTGTTCAAGCGCCATCTAC | 0.651
24 | GATGATTGTTCTCCCAGCTGATGAATTACAGTCTTCGAGTAAACAAATTTTCCTAATCTTTCTGTTCAAGCGCCATCTAC | 0.547
25 | GATGATTGTTCTCCCAGCTGATGAATTTAGGTCCTCGAGTAAACAAATTTTCCTAATCTTTCTGTTCAAGCGCCATCTAC | 0.64
26 | GATGATTGTTCTCCCAGCTGATGAATTCGGAGGCTCGAGTAAACAAATTTTCCTAATCTTTCTGTTCAAGCGCCATCTAC | 0.399
27 | GATGATTGTTCTCCCAGCTGATGAATTAGTATTGTCGAGTAAACAAATTTTCCTAATCTTTCTGTTCAAGCGCCATCTAC | 3.56
28 | GATGATTGTTCTCCCAGCTGATGAATTCCTGGCTTCGAGTAAACAAATTTTCCTAATCTTTCTGTTCAAGCGCCATCTAC | 0.243
29 | GATGATTGTTCTCCCAGCTGATGAATTTTTTGTCTCGAGTAAACAAATTTTCCTAATCTTTCTGTTCAAGCGCCATCTAC | 0.367
30 | GATGATTGTTCTCCCAGCTGATGAATTTCAGTGCTCGAGTAAACAAATTTTCCTAATCTTTCTGTTCAAGCGCCATCTAC | 0.505
31 | GATGATTGTTCTCCCAGCTGATGAATTGCCTTTATCGAGTAAACAAATTTTCCTAATCTTTCTGTTCAAGCGCCATCTAC | 1.14
32 | GATGATTGTTCTCCCAGCTGATGAATTCCCTCCGTCGAGTAAACAAATTTTCCTAATCTTTCTGTTCAAGCGCCATCTAC | 0.215
33 | GATGATTGTTCTCCCAGCTGATGAATTACATAAGTCGAGTAAACAAATTTTCCTAATCTTTCTGTTCAAGCGCCATCTAC | 0.353
34 | GATGATTGTTCTCCCAGCTGATGAATTGCGCTTCTCGAGTAAACAAATTTTCCTAATCTTTCTGTTCAAGCGCCATCTAC | 2.93
35 | GATGATTGTTCTCCCAGCTGATGAATTAGTCCAGTCGAGTAAACAAATTTTCCTAATCTTTCTGTTCAAGCGCCATCTAC | 0.27
36 | GATGATTGTTCTCCCAGCTGATGAATTACCGTAATCGAGTAAACAAATTTTCCTAATCTTTCTGTTCAAGCGCCATCTAC | 0.591
37 | GATGATTGTTCTCCCAGCTGATGAATTTTTACTATCGAGTAAACAAATTTTCCTAATCTTTCTGTTCAAGCGCCATCTAC | 0.364
38 | GATGATTGTTCTCCCAGCTGATGAATTTGCGGCCTCGAGTAAACAAATTTTCCTAATCTTTCTGTTCAAGCGCCATCTAC | 1.11
39 | GATGATTGTTCTCCCAGCTGATGAATTAGGATTTTCGAGTAAACAAATTTTCCTAATCTTTCTGTTCAAGCGCCATCTAC | 0.445
40 | GATGATTGTTCTCCCAGCTGATGAATTATGGAACTCGAGTAAACAAATTTTCCTAATCTTTCTGTTCAAGCGCCATCTAC | 0.315

Reference: PMC12820563
